# Measurements reported in the supplement of paper PMC6609913.
# Where a name gives a salt, the structure may show the parent alone. ± gives the standard deviation of the averaged measurements. In all, about 1,300 compounds were measured (“normalised cell viability”: median about 1, lowest 2% from about 0.14 on). The list shows a part of the results.
# Test system: V-C8 (BRCA2-deficient hamster cells)
# Assay: normalised cell viability (fraction of plate median); higher = more viable cells (less toxic)
# Settings: 5 µM
# Method in brief: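 In two screens, library drugs at 5 μM were given for 3 days (screen 1) or 6 days (screen 2) to hamster V-C8 cells without BRCA2 and V-C8 cells with BRCA2 restored, seeded 24 h earlier in 96-well plates. A resazurin assay gave the cell viability readout, expressed as modified robust per cent of sample against the plate median, with triplicate wells averaged.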
SMILES,normalised cell viability (treatment time: 3 days),normalised cell viability (treatment time: 6 days)
O=C(O)Cc1ccc(-c2ccccc2)cc1 [Felbinac],1.02 ± 0.011,1.06 ± 0.043
Clc1ccc(CCC(Cn2ccnc2)Sc2c(Cl)cccc2Cl)cc1 (stereo unspecified) [Butoconazole nitrate],0.839 ± 0.015,0.801 ± 0.028
N#Cc1ccc(C(c2ccc(C#N)cc2)n2cncn2)cc1 [Letrozole],1.07 ± 0.052,1.09 ± 0.043
C[N+]1(C)CCC(OC(=O)C(O)(c2ccccc2)C2CCCC2)C1 (stereo unspecified) [Glycopyrrolate],1.11 ± 0.12,1.06 ± 0.04
N=C(NCCCCCCNC(=N)NC(=N)Nc1ccc(Cl)cc1)NC(=N)Nc1ccc(Cl)cc1 [Chlorhexidine],0.129 ± 0.0057,0.101 ± 0.0054
NCc1ccccc1CC(=O)N[C@@H]1C(=O)N2C(C(=O)O)=C(CSc3nnnn3CC(=O)O)CS[C@H]12 [Ceforanide],1.02 ± 0.073,1.21 ± 0.22
CN1CCN(C2=Nc3ccccc3Oc3ccc(Cl)cc32)CC1 [Loxapine succinate],1.17 ± 0.063,1.15 ± 0.03
COc1ccc(CC(C)NCC(O)c2ccc(O)c(NC=O)c2)cc1 (stereo unspecified) [Formoterol fumarate],1.16 ± 0.21,0.96 ± 0.068
CC(=O)[C@@]12O[C@](C)(c3ccccc3)O[C@@H]1C[C@H]1[C@@H]3CCC4=CC(=O)CC[C@]4(C)[C@H]3CC[C@@]12C [Algestone acetophenide],0.915 ± 0.05,0.945 ± 0.094
COC(=O)[C@H](c1ccccc1Cl)N1CCc2sccc2C1 [Clopidogrel],1.04 ± 0.05,0.989 ± 0.061
C[C@]12CCC(=O)C=C1CC[C@@H]1[C@@H]2C(=O)C[C@@]2(C)[C@H]1CC[C@]2(O)C(=O)CO [Cortisone],1.07 ± 0.048,1.07 ± 0.021
COCCCC/C(=N\OCCN)c1ccc(C(F)(F)F)cc1 [Fluvoxamine maleate],0.975 ± 0.024,0.993 ± 0.02
CN(C)[C@@H]1C(O)=C(C(N)=O)C(=O)[C@@]2(O)C(O)=C3C(=O)c4c(O)cccc4[C@@](C)(O)[C@H]3C[C@@H]12 [Tetracycline hydrochloride],1.06 ± 0.021,0.942 ± 0.058
C[C@H](N[C@@H](CCc1ccccc1)C(=O)O)C(=O)N1CCC[C@H]1C(=O)O [Enalaprilat dihydrate],1.07 ± 0.028,1.07 ± 0.045
CCc1ccc(CCOc2ccc(CC3SC(=O)NC3=O)cc2)nc1 (stereo unspecified) [Pioglitazone],0.32 ± 0.013,0.208 ± 0.0067
Cc1ccc(N(CC2=NCCN2)c2cccc(O)c2)cc1 [Phentolamine hydrochloride],1.01 ± 0.032,1 ± 0.021
Cc1c(Cl)cccc1Nc1ccccc1C(=O)O [Tolfenamic acid],1.04 ± 0.017,1.03 ± 0.04

SMILES,normalised cell viability (treatment time: 3 days),normalised cell viability (treatment time: 6 days)
CCCSc1ccc2[nH]c(NC(=O)OC)nc2c1 [Albendazole],0.184 ± 0.0091,0.192 ± 0.026
CO[C@H]1/C=C/O[C@@]2(C)Oc3c(C)c(O)c4c(O)c(c(/C=N/N5CCN(C)CC5)c(O)c4c3C2=O)NC(=O)/C(C)=C\C=C\[C@H](C)[C@H](O)[C@@H](C)[C@@H](O)[C@@H](C)[C@H](OC(C)=O)[C@@H]1C [Rifampicin],1.03 ± 0.038,1.02 ± 0.033
CC[C@H]1OC(=O)[C@H](C)[C@@H](O[C@H]2C[C@@](C)(OC)[C@@H](O)[C@H](C)O2)[C@H](C)[C@@H](O[C@@H]2O[C@H](C)C[C@H](N(C)C)[C@H]2O)[C@](C)(O)C[C@@H](C)C(=O)[C@H](C)[C@@H](O)[C@]1(C)O [Erythromycin],0.962 ± 0.027,0.998 ± 0.023
O=C1c2ccccc2C(=O)C1c1ccccc1 [Phenindione],0.97 ± 0.04,0.942 ± 0.059
Clc1ccc2c(c1)C(N1CCNCC1)=Nc1ccccc1O2 [Amoxapine],0.533 ± 0.035,0.647 ± 0.019
O=C(O)CCc1nc(-c2ccccc2)c(-c2ccccc2)o1 [Oxaprozin],0.975 ± 0.16,1.24 ± 0.25
c1ccc(CC2=NCCN2)cc1 [Tolazoline hydrochloride],1 ± 0.025,0.98 ± 0.038
CC(C)(Oc1ccc(CCNC(=O)c2ccc(Cl)cc2)cc1)C(=O)O [Bezafibrate],0.404 ± 0.075,0.513 ± 0.022
OCCN1CCN(CCCN2c3ccccc3Sc3ccc(C(F)(F)F)cc32)CC1 [Fluphenazine dihydrochloride],0.666 ± 0.062,0.724 ± 0.14
CC(=O)OCC(=O)NCCCOc1cccc(CN2CCCCC2)c1 [Roxatidine Acetate HCl],0.1484 ± 0.0012,0.149 ± 0.008
CCn1cc(C(=O)O)c(=O)c2cc(F)c(N3CCNCC3)nc21 [Enoxacin],0.86 ± 0.018,0.916 ± 0.026
CCCc1ncc(C[n+]2ccccc2C)c(N)n1 [Amprolium hydrochloride],1.1 ± 0.25,1 ± 0.053
CC(C(=O)O)c1cccc(Oc2ccccc2)c1 (stereo unspecified) [Fenoprofen calcium salt dihydrate],1.05 ± 0.086,1.04 ± 0.062
Oc1ccc(C2CNCCc3c2cc(O)c(O)c3Cl)cc1 (stereo unspecified) [Fenoldopam],1.04 ± 0.046,0.956 ± 0.078
CS(=O)(=O)c1ccc([C@@H](O)[C@@H](CF)NC(=O)C(Cl)Cl)cc1 [Florfenicol],0.65 ± 0.048,0.618 ± 0.045
CCN(CC)CCCC(C)Nc1ccnc2cc(Cl)ccc12 (stereo unspecified) [Chloroquine diphosphate],0.756 ± 0.026,0.76 ± 0.0079
